Several values for one entry are separate records, joined by “and”; a condition that tells them apart may be missing. Identical values can stand only once. The campaign covered roughly 420,000 compounds. About 50,000 (12%) were called active. Inconclusive means that the source gave no clear call. Such entries were picked first, then a sample of the others. Calls come from the whole dose curve; as a rule, active = well fitted inhibition curve with a large enough effect; inconclusive = small, poorly fitted or top-dose-only effect; inactive = flat fitted curve, though single readings scatter. Potencies of inconclusive entries are left out as doubtful fits.
Assay: qHTS for Inhibitors of human tyrosyl-DNA phosphodiesterase 1 (TDP1): qHTS in cells in presence of CPT; note: nearly all actives have a fitted effect of over 55% in size
Conditions: chicken DT40 Tdp1-/-;hTDP1 cells + 20 nM CPT, ATP luminescence, 48 h; activity change, negative = growth inhibition: at 46.2 µM (top of the series) unless noted
Outline: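 Cell growth measured by CellTiter-Glo luminescence after a minimum 48 h, 37 C compound exposure with 20 nM CPT in Tdp1-knockout DT40 cells stably expressing hTDP1, seeded 400/well; qHTS titration format.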
With `CCN1CCN(C(c2ccc(C(F)(F)F)cc2)c2ccc3cccnc3c2O)CC1` (stereo not given) the Potency was inconclusive [inhibitor, single point]. In the case of `O=C(CSc1nnc(C23CC4CC(CC(C4)C2)C3)o1)Nc1ccc(N2CCOCC2)c(Cl)c1`, the Potency is reported as inconclusive [inhibitor, single point]. In the case of `O=C1C(Cl)=C(NS(=O)(=O)c2ccc([N+](=O)[O-])cc2)C(=O)c2ccccc21`, the Potency is reported as active: 10.3 µM. With `O=C(c1ccc2c(c1)OCO2)N1CCOCC1` the Potency was “inactive”. With `CCOc1ccc(NC(=S)/C(=C(\[O-])c2ccc(C)c([N+](=O)[O-])c2)[n+]2ccccc2)cc1` the Potency was inconclusive [inhibitor, single point]. With `O=C(C(c1ccccc1)c1ccccc1)N1CCC(c2nc(-c3ccccc3Cl)no2)CC1` the Potency was active: 23.1 µM. For `CCCCN(C=O)c1c(CC)nc2ccc(C(=O)NCCOc3ccc(OC)cc3)cn12`, the Potency was inconclusive [inhibitor, single point]. With `Cc1ccc(CCN=c2c([N+](=O)[O-])nn(-c3ccccc3)n2O)cc1` the Potency was inconclusive [inhibitor, partial curve]. With `Cc1nc2ccc(S(=O)(=O)N(C)CC(=O)N3CCc4ccccc4C3)cc2s1` the Potency was inconclusive [inhibitor, partial curve]. In the case of `COc1ccc2cc(CNC3CCS(=O)(=O)C3)c(-c3ccc(OC)c(OC)c3)nc2c1` (stereo not given), the activity change, negative = growth inhibition is reported as inactive: 4.11% [at 9.04 µM]. For `Fc1ccc(NCc2nnc(SCc3nnc(-c4ccccc4)o3)n2CC2CCCO2)cc1` (stereo not given), the Potency was “inactive”. In the case of `CCC1(c2ccccc2)NC(=O)N(Cc2cccc([N+](=O)[O-])c2)C1=O` (stereo not given), the activity change, negative = growth inhibition is reported as inconclusive: -31.8% [inhibitor]. In the case of `CCOn1c(=O)c(-c2cccc3ccccc23)[n+]([O-])c2ccccc21`, the Potency is reported as “inactive”. In the case of `CCOC(=O)c1c(C)oc2nc(C)nc(N(CC(C)C)CC(C)C)c12`, the Potency is reported as inconclusive [inhibitor, single point]. With `Cc1cccc(NC(=O)COC(=O)CN2C(=O)C3CCCCC3C2=O)c1C` (stereo not given) the Potency was “inactive”. In the case of `O=C(c1ccccc1)c1cccc(NC(=O)c2ccco2)c1`, the Potency is reported as inconclusive [inhibitor, single point]. In the case of `Cn1c(N)c(C(=O)CCl)c(=O)n(Cc2ccccc2)c1=O`, the Potency is reported as active: 2.31 µM. For `C=CCNC(=O)CSc1nnc(-c2ccccc2Br)n1-c1cccc(C(F)(F)F)c1`, the Potency was inconclusive [inhibitor, single point]. For `O=C(c1ccccc1)N(Cc1ccccc1)Cc1ccccc1`, the Potency was inconclusive [inhibitor, single point]. In the case of `COc1ccc2[nH]c(C)c(CCN(Cc3cccs3)C(=S)Nc3ccc(F)cc3)c2c1`, the Potency is reported as inconclusive [inhibitor, single point]. With `CC1=NN(c2ccccc2)C(=O)/C1=C\c1cn(C)c2ccccc12` the Potency was inconclusive [inhibitor, single point]. With `CSc1ccccc1OCc1cc(C(=O)N2CCc3sccc3C2)no1` the activity change, negative = growth inhibition was inconclusive: -30.4% [inhibitor]. With `Cc1ccc(OCCCCCCN2CCNCC2)c(Br)c1` the Potency was inconclusive [inhibitor, single point]. With `O=C(N/N=C/c1ccc2c(c1)OCO2)c1cc(-c2ccco2)nc2ccccc12` the Potency was active: 9.2 µM. For `CCN(CC)S(=O)(=O)c1cccc(NC(=O)c2ccc(Br)cc2)c1`, the Potency was inconclusive [inhibitor, partial curve]. With `CCc1ccc(NC(=O)c2ccc3c(=O)n4nc(Nc5ccccc5C)sc4nc3c2)cc1` the Potency was active: 23.1 µM. With `O=C(NCCCN1CCN(c2ccc(F)cc2)CC1)C1COc2ccccc2C1` (stereo not given) the Potency was active: 23.1 µM. In the case of `O=C(Nc1ccccc1C(=O)OCc1cc(=O)n2c3c(sc2n1)CCCC3)c1ccccc1`, the Potency is reported as active: 20.6 µM. With `O=C(O)C1CC=CCC1C(=O)NCCCCc1ccccc1` (stereo not given) the Potency was “inactive”. With `CC(C)=C1C2C=CC1C(C(=O)Nc1cccc(C)c1)C2C(=O)O` (stereo not given) the Potency was inconclusive [inhibitor, partial curve, poor fit]. In the case of `COc1ccc([C@H]2CC(=O)C=C(C#CC(C)(C)C)C2)cc1`, the Potency is reported as inconclusive [inhibitor, single point]. In the case of `COc1ccc(-c2cc(C(=O)OCC(=O)NC3CC3)c3ccccc3n2)cc1`, the Potency is reported as inconclusive [inhibitor, single point]. In the case of `Cc1ccc(C(NC(=O)C2CCN(CCCOc3ccccc3)CC2)c2ccccn2)cc1` (stereo not given), the Potency is reported as inconclusive [inhibitor, single point]. In the case of `CC1CCCC(NC(=O)c2cccc(S(=O)(=O)N3CCCCC3)c2)C1C` (stereo not given), the Potency is reported as active: 20.6 µM. In the case of `CC(C)(C)NC(=O)C1C(c2ccc(C(F)(F)F)cc2)=Nc2ccccc2N1C(=O)c1cccc2ccccc12` (stereo not given), the Potency is reported as inconclusive [inhibitor, single point]. With `COc1cc(OC)cc(C(=O)N[C@H](C(=O)Nc2ccc3c(c2)OCO3)C(C)C)c1` the Potency was “inactive”. For `Cc1cc(C)nc(SCC(=O)Nc2ccc(S(=O)(=O)NC(C)(C)C)cc2)n1`, the Potency was active: 16.4 µM. With `CCCc1nc2oc3c(NCC4CCCO4)ncnc3c2c2c1COC(C)(C)C2` (stereo not given) the Potency was active: 29.1 µM. With `CCCOc1ccc(C2C(=O)N(C3CCCCC3)CC(=O)N2CCc2ccccc2)cc1OC` (stereo not given) the Potency was inconclusive [inhibitor, partial curve]. With `Clc1cccc(-n2ncc3c(NCCc4ccccc4)ncnc32)c1` the Potency was inconclusive [inhibitor, single point]. With `CCOC(=O)c1cccc(NS(=O)(=O)c2cc(-c3cnc(C)o3)ccc2OC)c1` the Potency was active: 10.3 µM. With `COc1ccc(OCCn2cnc3ccccc32)cc1` the Potency was “inactive”. In the case of `CCCCCNC(=O)c1cc2c(=O)n3ccccc3nc2n1C`, the Potency is reported as inconclusive [inhibitor, partial curve]. With `CC1CCC(C(C)C)C(OC(=O)Cn2c(-c3ccccc3)[n+](C)c3ccccc32)C1` (stereo not given) the Potency was active: 1.3 µM and active: 517 nM. In the case of `COc1cccc(NC(=O)c2cc([N+](=O)[O-])ccc2NC(=O)CNCC2CCCO2)c1` (stereo not given), the Potency is reported as inconclusive [inhibitor, single point].

— PubChem BioAssay AID686979 (National Center for Advancing Translational Sciences (NCATS), 2013)
% is set by controls: 0 for no effect and ±100 for the full control effect; potency is the fitted concentration of half-maximal effect; tags give direction and shape of the fitted curve.
